Test results from PubChem BioAssay (Tox21).
This list was built around the results that the source calls inconclusive (neither active nor inactive); the mix of calls is not that of the screen. Entries that show only a call come without a potency. A potency beside an inconclusive call is a rough fit, not a confirmed value. Active and inactive are the calls of the source. Unless noted, calls come from the whole dose curve; as a rule, active = well fitted cell-killing curve with a large enough effect in the repeat runs; inconclusive = weak or mixed curves, or effect the other way; inactive = no such curve, though single readings can be large or run the other way.

Target: Progesterone receptor (Homo sapiens) (UniProt P06401)
Test: qHTS assay to identify small molecule antagonists of the progesterone receptor (PR) signaling pathway (AID 1346795; active = well fitted inhibition curve with a large enough effect in the signal ratio in the repeat runs, not every such curve was filed as active; inconclusive = weak or mixed curves; the % refers to the signal ratio)
Conditions: PR-UAS-bla HEK293T, beta-lactamase FRET ratio, 16 h; activity change, negative = inhibition: at 92.4 µM (top of the series) unless noted
In short: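 In HEK293T cells bearing the PR-UAS-bla reporter, compound effects on promegestone-driven (1 nM) beta-lactamase expression are assessed after 16 hr using a fluorescent FRET substrate incubated 2 hr at room temperature.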
Potency is the fitted concentration of half-maximal effect; tags give direction and shape of the fitted curve.

Sequence of UniProt P06401 (P06401 whole entry, looked up): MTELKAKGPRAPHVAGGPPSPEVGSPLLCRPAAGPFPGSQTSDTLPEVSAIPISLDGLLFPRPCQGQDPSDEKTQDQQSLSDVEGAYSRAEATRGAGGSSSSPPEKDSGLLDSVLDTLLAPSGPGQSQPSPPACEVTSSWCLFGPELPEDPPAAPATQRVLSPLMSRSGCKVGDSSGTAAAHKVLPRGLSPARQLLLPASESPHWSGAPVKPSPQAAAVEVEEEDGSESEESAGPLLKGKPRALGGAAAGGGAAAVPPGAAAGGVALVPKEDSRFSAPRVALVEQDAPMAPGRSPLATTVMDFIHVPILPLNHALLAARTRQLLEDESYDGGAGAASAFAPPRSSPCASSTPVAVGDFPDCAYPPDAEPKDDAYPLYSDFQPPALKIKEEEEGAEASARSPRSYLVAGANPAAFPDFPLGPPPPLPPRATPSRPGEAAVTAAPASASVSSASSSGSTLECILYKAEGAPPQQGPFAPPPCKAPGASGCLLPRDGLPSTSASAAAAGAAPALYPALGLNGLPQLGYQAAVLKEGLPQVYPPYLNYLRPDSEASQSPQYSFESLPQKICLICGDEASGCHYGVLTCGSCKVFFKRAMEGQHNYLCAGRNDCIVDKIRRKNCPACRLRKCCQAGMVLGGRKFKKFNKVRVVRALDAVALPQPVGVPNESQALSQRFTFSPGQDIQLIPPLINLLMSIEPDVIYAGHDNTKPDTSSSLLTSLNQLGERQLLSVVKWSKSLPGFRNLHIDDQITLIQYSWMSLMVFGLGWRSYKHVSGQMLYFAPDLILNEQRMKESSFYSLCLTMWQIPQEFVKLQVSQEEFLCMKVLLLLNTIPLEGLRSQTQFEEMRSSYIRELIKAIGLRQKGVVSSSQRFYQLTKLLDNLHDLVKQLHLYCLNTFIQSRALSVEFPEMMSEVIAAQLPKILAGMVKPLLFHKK

| Structure (SMILES) | Potency | activity change, negative = inhibition |
| --- | --- | --- |
| C[C@@H]1CCC[C@H](C)N1CCCC(O)(c1ccccc1)c1ccccn1 (stereo partly specified) | inactive |  |
| CCCCCCCCCCCCCCCC(=O)OC(C)C | inactive |  |
| CCC(C)c1cc(C(C)(C)C)c(O)c(C(C)(C)C)c1 (stereo unspecified) |  | inconclusive: 8.38% |
| O=C(O)c1cn(-c2ccc(F)cc2)c2cc(N3CCNCC3)c(F)cc2c1=O |  | inconclusive: 21.1% [at 42.5 µM] |
| COc1ccc(CCC(=O)c2c(O)cc(O[C@@H]3O[C@H](CO)[C@@H](O)[C@H](O)[C@H]3O[C@@H]3O[C@@H](C)[C@H](O)[C@@H](O)[C@H]3O)cc2O)cc1O | inactive |  |
| CC(C)=CC1CC(C)CCO1 (stereo unspecified) | inactive |  |
| CN(C)Cc1ccccc1 | inactive |  |
| CCC(=O)OC(C)(C)C1CC=C(C)CC1 (stereo unspecified) | inactive |  |
| Cn1cnc2c(F)c(Nc3ccc(Br)cc3Cl)c(C(=O)NOCCO)cc21 | inactive |  |
| O=C1CC2(CCCC2)CC(=O)N1CCNCC1COc2ccccc2O1 (stereo unspecified) | inactive |  |
| Oc1cc(O)c(Cl)cc1Cl | active: 49.7 µM |  |
| CC1(O)CSC(C)(O)CS1 (stereo unspecified) | inactive |  |
| CCO[Si](CCCCl)(OCC)OCC |  | inconclusive: -2.26% |
| CC(=O)Nc1nnc(S(N)(=O)=O)s1 |  | inconclusive: 0.23% |
| Cc1cc(C)c(C)c(O)c1 |  | inconclusive: -5.11% |
| COC(OC)C(C)c1ccccc1 (stereo unspecified) | inactive |  |
| CN(C)c1ccc(CCO)cc1 |  | inconclusive: -33.9% |
| Cl/C(=C\n1cncn1)c1ccc(Cl)cc1Cl | inconclusive: 7.5 µM [rising, full curve] |  |
| CC1=CC(=O)/C(=C(/C)O)C(=O)O1 | inactive |  |

Test system: not listed separately
Test: qHTS assay to identify small molecule antagonists of the progesterone receptor (PR) signaling pathway - cell viability counter screen (AID 1346798); note: nearly all actives have a fitted effect of over 50% in size
Conditions: PR-UAS-bla HEK293T viability, CellTiter-Glo luminescence, 16 h; series mostly up to 92.4 µM
In short: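 Following a 4 hr attachment, PR-UAS-bla HEK293T cells in charcoal-stripped FBS medium were exposed to compounds with R5020 for 16 hr; CellTiter-Glo was added and luminescence read after 30 min at room temperature.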

| Structure (SMILES) | Potency |
| --- | --- |
| C/C=C1\[C@H]2C=C(C)C[C@]1(N)c1ccc(=O)[nH]c1C2 | inactive |
| OC[C@@H](O)C(O)[C@@H](O)CO (stereo partly specified) | inactive |
| CC(C)C(=O)OCC(C)(C)C(O)C(C)C (stereo unspecified) | inconclusive: 27.4 µM [rising, single point] |
| C=C(C)c1cccc(C(C)(C)N=C=O)c1 | inactive |
| OCc1ccccc1 | inconclusive: 75.9 µM [cytotoxic, partial curve, poor fit] |
| COc1ccccc1[N+](=O)[O-] | inconclusive: 24.3 µM [rising, full curve] |
| Fc1c(F)c(F)c(Br)c(F)c1F | inconclusive: 68.6 µM [rising, partial curve, poor fit] |
| NCC(=O)CCC(=O)O | inconclusive: 3.35 µM [cytotoxic, single point] |
| CC(=O)N(c1onc(C)c1C)S(=O)(=O)c1ccc(N)cc1 | inactive |
| CC1CCC(CO)CC1 (stereo unspecified) | inactive |
| CC(C)=CC1CC(C)CCO1 (stereo unspecified) | inactive |
| CN(C)Cc1ccccc1 | inconclusive: 17.4 µM [cytotoxic, single point] |
| CCO[Si](CCCCl)(OCC)OCC | inconclusive: 76.3 µM [rising, single point] |
| CC(=O)Nc1nnc(S(N)(=O)=O)s1 | inactive |
| COC(OC)C(C)c1ccccc1 (stereo unspecified) | inactive |
| CN(C)c1ccc(CCO)cc1 | inconclusive: 27.1 µM [rising, full curve] |
| Cl/C(=C\n1cncn1)c1ccc(Cl)cc1Cl | inconclusive: 29.8 µM [rising, single point] |
